# According to the supplement of paper PMC11369174, “Proteome-scale characterisation of motif-based interactome rewiring by disease mutations” (Molecular Systems Biology, 2024):
# The list shows a part of the results. This is a noisy data set.
# T1: RDX_FERM_1_P35241_5_295
# T1 chain: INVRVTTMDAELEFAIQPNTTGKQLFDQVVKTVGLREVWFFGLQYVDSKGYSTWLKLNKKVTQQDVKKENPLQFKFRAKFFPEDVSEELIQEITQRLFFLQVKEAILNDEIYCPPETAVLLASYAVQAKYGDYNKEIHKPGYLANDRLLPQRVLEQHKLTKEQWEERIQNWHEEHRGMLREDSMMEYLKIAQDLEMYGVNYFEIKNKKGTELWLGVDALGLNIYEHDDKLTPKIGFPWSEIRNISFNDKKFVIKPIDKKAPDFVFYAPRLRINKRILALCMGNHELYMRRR
# T2: EPS15_EH__P42566_121_215
# T2 chain: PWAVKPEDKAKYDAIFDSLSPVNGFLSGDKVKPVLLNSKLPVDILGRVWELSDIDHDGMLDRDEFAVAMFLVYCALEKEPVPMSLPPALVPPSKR
# T3: MSN_FERM_1_P26038_1_322
# T3 chain: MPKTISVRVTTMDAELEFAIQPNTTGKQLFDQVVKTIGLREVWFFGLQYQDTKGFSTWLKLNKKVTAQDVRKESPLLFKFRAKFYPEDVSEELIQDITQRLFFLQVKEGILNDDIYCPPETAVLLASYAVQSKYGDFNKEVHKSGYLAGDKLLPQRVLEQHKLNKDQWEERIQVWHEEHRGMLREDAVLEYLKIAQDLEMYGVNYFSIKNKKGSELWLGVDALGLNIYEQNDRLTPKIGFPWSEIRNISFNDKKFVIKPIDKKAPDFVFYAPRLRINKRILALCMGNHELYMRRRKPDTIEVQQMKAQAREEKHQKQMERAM
# T4: PEX14_Pex14__O75381_16_84
# T4 chain: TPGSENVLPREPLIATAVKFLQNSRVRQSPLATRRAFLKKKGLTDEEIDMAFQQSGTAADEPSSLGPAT
# Experiments:
# Test in all cases: mutation enrichment score (mutant vs wild-type peptide binding to bait); baits are purified protein domains named by gene / domain / UniProt id / residues; peptides come from disordered regions of human proteins; higher = mutation enhances binding relative to wild type
# [1] = target: FKBP1A_full-length__P62942_1_108, P62942; conditions: number of wild-type / mutant comparisons summed (bounds the score): 6, wild-type window: …
# Sequence of FKBP1A_full-length__P62942_1_108, P62942 (P62942 whole entry): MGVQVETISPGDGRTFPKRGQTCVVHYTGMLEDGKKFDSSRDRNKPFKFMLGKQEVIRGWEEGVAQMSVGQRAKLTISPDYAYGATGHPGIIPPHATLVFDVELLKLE
# EZR_FERM_1_P15311_2_295 = conditions: paper call: no_effect, wild-type window: …
# Sequence of EZR_FERM_1_P15311_2_295 (chain, as listed by the source): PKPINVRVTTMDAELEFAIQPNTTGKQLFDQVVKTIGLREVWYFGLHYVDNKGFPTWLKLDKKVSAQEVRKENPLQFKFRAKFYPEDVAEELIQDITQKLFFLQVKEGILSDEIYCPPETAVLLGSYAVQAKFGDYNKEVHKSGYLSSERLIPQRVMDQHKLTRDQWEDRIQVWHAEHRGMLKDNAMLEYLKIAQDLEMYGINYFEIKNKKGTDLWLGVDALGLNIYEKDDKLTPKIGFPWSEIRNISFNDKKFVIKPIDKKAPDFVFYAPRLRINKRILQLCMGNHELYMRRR
# RDX_FERM_1_P35241_5_295 = target: T1, RDX_FERM_1_P35241_5_295; conditions: wild-type window: …
# [2] = target: USP7_MATH-TRAF__Q93009_53_206; conditions: paper call: no_effect, wild-type window: …
# Sequence of USP7_MATH-TRAF__Q93009_53_206 (chain, as listed by the source): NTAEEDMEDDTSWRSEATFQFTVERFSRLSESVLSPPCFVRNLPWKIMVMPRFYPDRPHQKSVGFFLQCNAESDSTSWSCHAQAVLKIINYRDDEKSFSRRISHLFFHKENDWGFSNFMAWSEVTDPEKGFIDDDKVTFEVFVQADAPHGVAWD
# EPS15_EH__P42566_121_215 = target: T2, EPS15_EH__P42566_121_215; conditions: wild-type window: …
# MSN_FERM_1_P26038_1_322 = target: T3, MSN_FERM_1_P26038_1_322; conditions: wild-type window: …
# [3] = target: T4, PEX14_Pex14__O75381_16_84; conditions: number of wild-type / mutant comparisons summed (bounds the score): 6; paper call: no_effect; wild-type window: …
# [4] = target: MAP1LC3A_ATG8__Q9H492_2_121; conditions: number of wild-type / mutant comparisons summed (bounds the score): 12; paper call: diminished; wild-type window: …
# [5] = number of wild-type / mutant comparisons summed (bounds the score): 10
# [6] = number of wild-type / mutant comparisons summed (bounds the score): 12, paper call: no_effect
# [7] = number of wild-type / mutant comparisons summed (bounds the score): 5
# [8] = number of wild-type / mutant comparisons summed (bounds the score): 12, paper call: enhanced
# [9] = number of wild-type / mutant comparisons summed (bounds the score): 6, paper call: no_effect
binder,measurement,setting,value
DRGEDGPKPMPPYSSMFILSMTNPLRRLCHYILNLRYFEMC [T1228M T1228M],mutation enrichment score,[1]; paper call: no_effect,2
IIHEGLDYYALHIRDTLPEDMGYYRVTATNTAGSTSCQAHL [T32790M T32790M],mutation enrichment score,EZR_FERM_1_P15311_2_295; [5],-2.9
same,mutation enrichment score,RDX_FERM_1_P35241_5_295; [6],-1.8
same,mutation enrichment score,[2]; [7],1.7
RPTGNTSWLMSLENPLSPFSLDINNMPLQELSNALMAAERF [S1221L S1221L],mutation enrichment score,EPS15_EH__P42566_121_215; [8],3.6
APIVAHLWEYVMSIDSLQLGCAEDGHCKGDINPNIPYPTRL [Y498C Y498C],mutation enrichment score,EZR_FERM_1_P15311_2_295; [7],2
same,mutation enrichment score,MSN_FERM_1_P26038_1_322; [9],1
EGLNQGNPFIATSGPGHLSHMPQQSPSMAPSLRHSVQQFHH [V238M V238M],mutation enrichment score,EPS15_EH__P42566_121_215; [9],-4.5
NVDQKVIQAGMFDQKSSSHEWRAFLQAILEHEEENEEEDEV [R1213W R1213W],mutation enrichment score,EPS15_EH__P42566_121_215; [8],7
FGGPLYYANKDFFLQSLYSLMGLDAGCMAARRKEGGSETGV [T562M T562M],mutation enrichment score,EPS15_EH__P42566_121_215; [9],4.3
MKRAKVSQALFAKVAANKSQSWLCELLRWKENPSPENRTLW [G515S G515S],mutation enrichment score,EPS15_EH__P42566_121_215; [9],5
same,mutation enrichment score,[3],0.26
NLIMASLPGVMTIGPGEPASPGPTFTNTGASTLVIGLASTQ [L422P L422P],mutation enrichment score,[1]; paper call: diminished,-6
SVTQVSSVSTDSAGSSYSISSILGITSPSADTNKRKRDEGI [G183S G183S],mutation enrichment score,EZR_FERM_1_P15311_2_295; [7],1
same,mutation enrichment score,MSN_FERM_1_P26038_1_322; [9],1.1
same,mutation enrichment score,RDX_FERM_1_P35241_5_295; [9],2.5
same,mutation enrichment score,[2]; [5],-2.9
MAFLVIPNSTRDDSGKYSLTPVNPAGEKAVFVNVRVLDTPG [L19607P L19607P],mutation enrichment score,EZR_FERM_1_P15311_2_295; [7],-0.94
same,mutation enrichment score,MSN_FERM_1_P26038_1_322; [9],0.73
same,mutation enrichment score,RDX_FERM_1_P35241_5_295; [9],1.9
LLSVKQEKEIQMKMIVTRGEYVLQNTSPEGIPTIQQQLQSV [S3346Y S3346Y],mutation enrichment score,EZR_FERM_1_P15311_2_295; [5],4
same,mutation enrichment score,MSN_FERM_1_P26038_1_322; [8],7
same,mutation enrichment score,RDX_FERM_1_P35241_5_295; [8],7
VETAAGAQDGQRTSSGSDTDVYSFHSATEQEDLLSDIQQAI [I183V I183V],mutation enrichment score,EZR_FERM_1_P15311_2_295; [7],0
LHRNSIQFTDGYEVKEDIGVDSYSVCKRCIHKATNMEFAVK [G431D G431D],mutation enrichment score,EZR_FERM_1_P15311_2_295; [7],-3.7
same,mutation enrichment score,MSN_FERM_1_P26038_1_322; [9],-5.9
LGKDEKEQSEKAAMYDIISSTSKDSTKLTLRLSRVRSSDMD [P351T P351T],mutation enrichment score,EZR_FERM_1_P15311_2_295; [5],3
same,mutation enrichment score,MSN_FERM_1_P26038_1_322; [9],-2.9
same,mutation enrichment score,RDX_FERM_1_P35241_5_295; [6],-0.27
FIDKVRFLEQQNQVLQTKWEPLQQVDTSTRTHNLEPYFESF [L214P L214P],mutation enrichment score,EZR_FERM_1_P15311_2_295; [7],3
same,mutation enrichment score,[4],-6
same,mutation enrichment score,MSN_FERM_1_P26038_1_322; [9],2
same,mutation enrichment score,RDX_FERM_1_P35241_5_295; [9],4.9
YIHQWEEIFHMTYDLASAVVTIFNLIGMMLLLCHWDGCLQF [R297T R297T],mutation enrichment score,EZR_FERM_1_P15311_2_295; [7],3.5
same,mutation enrichment score,MSN_FERM_1_P26038_1_322; [9],5.1
same,mutation enrichment score,RDX_FERM_1_P35241_5_295; [9],2.7
